# From publication PMC10668032
# This is one part of the list. At the low end of the ranking the order means little.
# Molecular target: SIX1 homeodomain (reference allele) (UniProt Q15475)
# Assay: universal protein binding microarray
# Conditions: Universal all-10-mer PBM (8x60K, AMADID 030236), 300 nM GST-tagged protein, Alexa Fluor 488 anti-GST; buffer, salt, pH and temperature not stated; high values mean tight binding; most listed sequences are background and not binding sites; double strand, one strand shown
row,Sequence,binding signal [E-score]
1,AATTCTCC,-0.147
2,ATCCATCG,0.246
3,ATGAACAA,-0.193
4,AGTCCGTG,-0.0387
5,ACACGATG,0.156
6,CATCCCCC,0.199
7,CATCCGCG,-0.0348
8,CCTAACTC,-0.247
9,GACCCCGA,0.162
10,CAAAGTTC,-0.195
11,AGTATCAT,0.473
12,GGACTCAC,-0.11
13,AACAGGCG,-0.151
14,ATTCTGCA,-0.0985
15,GAGCTTCC,-0.00866
16,ACATGGTA,0.159
17,CACGGGCG,0.00782
18,CAAATGGA,-0.0716
19,GTAGGGAA,-0.131
20,CAGTATCG,0.435
21,CGTCTGGA,-0.259
22,ACTCCTGG,0.0384
23,GTTAAAAC,-0.232
24,CGGTGTAC,0.309
25,ATTCCAGC,-0.0405

row,Sequence,binding signal [E-score]
1,GATCGATA,0.408
2,CGATTTTC,-0.126
3,TGTAGGAA,-0.111
4,ATAATGCG,0.0852
5,GGCAGGGA,-0.0171
6,AATTATGT,-0.137
7,AAGCAAGG,-0.155
8,CTAATCTA,-0.0476
9,AGTATAAT,0.265
10,AACGAAGA,-0.0393
11,CGGAGGAA,-0.257
12,TCTGCCCA,-0.0751
13,ACCTGGAC,-0.134
14,CGGTCCTC,-0.184
15,AGCCGTAT,0.292
16,ATAATCGG,0.196
17,CCGACCCA,0.155
18,CACTAAGC,-0.0184
19,ATCGTGCC,0.192
20,AGTCACGG,-0.0996
21,CATAAATA,-0.0792
22,GATCACGC,0.317
23,ACGCGTCT,-0.00994
24,GGGCTTTA,-0.29
25,ACTGGAAA,-0.269

row,Sequence,binding signal [E-score]
1,GATGTTGA,-0.0757
2,ACAGACCG,0.0387
3,AATTCCCA,-0.0997
4,GCAGAACC,0.0331
5,GCGCACTA,-0.15
6,ACGTAGGG,-0.0364
7,AACATAAC,0.0137
8,TGAAACCA,0.163
9,CATGGGCC,-0.347
10,ACAAGCTA,-0.0481
11,GTGTAGAA,0.0034
12,AACTACGC,-0.2
13,TGTAAAAA,-0.282
14,GTTGTTTA,-0.0414
15,CGCGGGGC,-0.0535
16,AAGCCCCC,-0.225
17,ACACGCGA,0.125
18,CCCTCTCA,0.17
19,GCCTCGTA,-0.0546
20,GCCGCCAC,-0.259
21,CAGCTCCC,-0.0381
22,CCGTTTCA,-0.0155
23,AATTTCCA,-0.312
24,GCTTTTTA,-0.182
25,ACCCGCGT,-0.104

row,Sequence,binding signal [E-score]
1,CGATGGTA,-0.121
2,ACGGAAGT,-0.13
3,GTGGCTAA,-0.142
4,ATTGAGTG,0.0213
5,AGTTCATG,-0.0781
6,ATTATGCG,0.242
7,AATCCGAA,0.00788
8,GACGCACC,-0.203
9,AACTTTAT,-0.145
10,CACACAAC,-0.244
11,CCCTTATC,0.0801
12,ACTTGAAT,0.0267
13,AATCCGGA,0.276
14,ACCTTTAT,-0.117
15,CAGTCTGA,-0.0651
16,CTTTAAAG,-0.18
17,CCGGCATC,0.201
18,ACTCACAT,-0.091
19,GGGGTAAC,0.126
20,TAATCTAA,-0.0279
21,CTGGAAGC,-0.147
22,AACACCCG,0.304
23,AGTGTATC,0.43
24,CATACAAA,-0.0204
25,GCGGCCAA,-0.142

row,Sequence,binding signal [E-score]
1,ACATTAAC,0.0223
2,ATAATTCA,-0.00119
3,CCTAATAG,-0.00866
4,AAGTGTGT,-0.0803
5,TAGACAAA,-0.167
6,AATGTCCA,-0.282
7,CTAACATC,-0.0863
8,AAAATAAT,0.0704
9,AACCCTAC,-0.0921
10,CCGTGAGG,-0.142
11,ACGCGTCG,-0.0524
12,ACTGGGCC,-0.323
13,ATGTCGAC,-0.0647
14,CATAATGC,-0.0538
15,AACGTTTA,-0.228
16,AATGCACT,-0.133
17,ACACCCTG,0.321
18,GTCTGCAC,-0.209
19,GGCCGGCC,-0.346
20,CTCTGCGC,-0.0616
21,TCGCACAA,-0.103
22,CACTATCA,0.276
23,TCATTGGA,0.00481
24,ATCATATC,0.425
25,GAAAGGCC,0.0234

row,Sequence,binding signal [E-score]
1,GTTAGGAA,-0.0998
2,AACCAAAC,-0.336
3,ACCCCGGG,0.118
4,AATACCCA,0.29
5,CTAACCGC,0.00498
6,GGATTGAC,0.0149
7,TCGTGCAA,0.0103
8,GAATGGAA,-0.173
9,CACCATCA,-0.0879
10,CACACACC,0.0747
11,ATTCGCCA,0.0239
12,CTGGCCGC,-0.288
13,AGATATAA,0.261
14,GGTCAGTA,-0.0787
15,GACGTGAA,-0.274
16,AAGCGGTA,0.00751
17,CTAAAGTA,-0.00647
18,AACCCTCG,-0.00321
19,AAATACTC,0.0962
20,CCCTCGAA,-0.0953
21,AGGAAGGA,-0.132
22,AATCCGGC,0.228
23,CGCAATAG,-0.0313
24,CTTAAAAC,-0.169
25,AATACCAT,0.296

row,Sequence,binding signal [E-score]
1,ACACCCCA,0.365
2,CACGCTCG,-0.24
3,ACCCGCAA,0.0386
4,AAAAAATG,-0.255
5,GGGATAAA,0.212
6,AAAACTTG,-0.193
7,GGGACGCA,-0.306
8,CCAAATAC,0.0961
9,ACGGGCAT,0.0253
10,CAGGCACA,-0.118
11,CGCTTATA,0.0407
12,CCAAAGCG,-0.13
13,GGGTGGCA,-0.0349
14,ACGCAAGC,-0.0951
15,ACCAAATA,0.119
16,ACCGTCTA,0.0488
17,GCTCTATA,0.0654
18,AGGCGCAT,0.0677
19,ATAGGTGC,0.0708
20,CATTAGGC,-0.22
21,CGGAAATA,0.092
22,AGGATAAA,0.16
23,AAAGCTGA,-0.123
24,AAAGCGCA,-0.0808
25,CTAGATCA,0.303

row,Sequence,binding signal [E-score]
1,CGATCGTC,0.0769
2,ATTTACGG,-0.176
3,TGGCGCCA,-0.379
4,CACTGCTC,-0.0732
5,AATGATCA,0.113
6,CTTGTGCA,-0.156
7,AGCCCACG,-0.147
8,ATCTTATG,0.0883
9,AGTACCAT,0.0404
10,CTCTATTA,-0.178
11,GACATTGA,-0.0218
12,ACCACAAC,-0.0481
13,ACTACAGT,-0.065
14,CCCGGCGC,0.0859
15,GTCTAAAC,0.0999
16,AATTGTAA,-0.201
17,GTGCAAGA,-0.0238
18,ATACTCAT,0.297
19,GAAACTAC,-0.253
20,CGTTGAAC,-0.145
21,CTTCGCGC,-0.0997
22,CTCCCTGC,-0.0895
23,CCGCAGTC,-0.137
24,GTGAACAC,-0.082
25,GAGTTTGA,-0.0765

row,Sequence,binding signal [E-score]
1,CGCACCCG,0.121
2,CGTAACGC,-0.144
3,AAAGGGTT,-0.0883
4,ATCGCACG,0.207
5,TGATTTAA,-0.0863
6,CAAAACCC,0.04
7,ATAGAGTC,-0.0374
8,CGGTTTTC,-0.13
9,AGACGGCG,-0.0675
10,CACTATGC,0.0958
11,CATATCCG,0.426
12,TGCGCCAA,-0.255
13,GGCCTACA,-0.0413
14,CGCGCATC,-0.131
15,GGTTGGAA,-0.225
16,GCGAGCCC,0.207
17,GCGTGCGA,-0.0337
18,ACGCTAAG,-0.132
19,GGCCTTTA,-0.229
20,CACCTGCG,0.105
21,AGTGAACT,-0.199
22,AAGCTTGA,-0.17
23,CCAAGAAA,0.0457
24,GCGAGTTA,-0.0829
25,CTAGACTA,-0.0397

row,Sequence,binding signal [E-score]
1,AAACCGAG,-0.0681
2,ATACCTGA,0.367
3,GATTGTGC,-0.0658
4,CCGTTCAA,0.0578
5,TACCGTCA,0.096
6,CCCTTCTA,0.0856
7,CAGCACCC,-0.202
8,GCTGTTTA,-0.0313
9,AATTCTAC,-0.19
10,CCATAAGC,-0.236
11,AGGCTGCC,-0.205
12,ACCAACGC,-0.0326
13,CCTATGTA,0.156
14,CAACCACG,-0.187
15,AGAACCGC,-0.112
16,CACGTACC,-0.0898
17,GACCCTCC,0.125
18,CTCACCTC,-0.00249
19,CCTGTGAA,-0.0332
20,CCTGTGGC,-0.19
21,CGTGTCCA,0.00655
22,AACACCAT,0.173
23,GCTATTAA,-0.00791
24,CATAAAAG,-0.0567
25,AGTTTTAG,-0.18

row,Sequence,binding signal [E-score]
1,GATCGCGA,0.338
2,CCAACAGA,0.0914
3,GGAAAAGA,-0.318
4,CAATGGCC,-0.303
5,AGAAACGG,0.0744
6,GCTCTTCA,-0.178
7,CTAAAGAG,-0.0262
8,ATTTGCGC,-0.13
9,GGTGGATA,0.362
10,ACGACCTC,0.122
11,ACTCATTC,-0.00826
12,GAATCATC,0.123
13,TCATAACA,0.0927
14,ACGCGATA,0.316
15,CTGGGAAA,-0.09
16,CATTCCAG,-0.135
17,CACGCAGA,-0.00376
18,AACAAGCC,-0.269
19,CGGGCCAG,-0.0259
20,ATGATTGG,-0.201
21,CGCCCCTA,0.0534
22,AGCAACAT,-0.256
23,GCGGTGTA,0.336
24,AATGGTTA,-0.191
25,CGCGCCGC,-0.026

row,Sequence,binding signal [E-score]
1,AGGGAGTG,-0.0527
2,CCAATTAA,-0.218
3,ATTGCTAC,-0.0354
4,AGGGTCGA,0.138
5,GGACTTAC,-0.197
6,AAGGTACT,-0.199
7,ACCGCAGT,0.0666
8,AATCAGAG,-0.024
9,AGATTGAG,0.0691
10,CGAGCTGC,-0.0379
11,CTCATCAA,-0.00447
12,GCTCACCA,0.0132
13,AGTGTACG,0.0873
14,ATTTGGTG,0.118
15,ACTGAAAG,-0.149
16,CTGCGACA,-0.0119
17,TGAACGCA,-0.0861
18,ATTGGGAA,-0.105
19,CTGCACAA,-0.0295
20,CCGGGGGC,-0.132
21,CGAACGAG,-0.134
22,ATTCTACC,0.048
23,CAAGATAG,0.0971
24,AACATGGT,0.0399
25,AGGACCGG,-0.138

row,Sequence,binding signal [E-score]
1,GCGACAAC,-0.329
2,TCCGCGAA,0.0318
3,GCCTATCA,0.289
4,ACGGAGCA,-0.0304
5,GCCAGGGC,-0.176
6,GGGGGTCA,0.0355
7,GTCAGTCA,-0.176
8,AGTTTAAC,-0.0126
9,CCGTGTCA,0.344
10,CAGTTATG,-0.126
11,GCACCCAC,-0.0835
12,CCATCCGC,0.112
13,CGGGGTTC,0.181
14,CCAGCGCA,-0.0754
15,CGTCTGTA,-0.0985
16,AGGTCGAG,-0.311
17,ACTAAATC,-0.107
18,AAAGATAA,-0.12
19,GAAAGCGA,-0.0978
20,ATGATTCA,-0.147
21,AACAAAAC,-0.126
22,CCGACTCA,-0.0758
23,TATGCGAA,0.164
24,CACTGCCC,-0.222
25,GATTCCAC,0.142

row,Sequence,binding signal [E-score]
1,CGTAGCAA,-0.117
2,ATCTTCCC,0.174
3,CGATGCAA,-0.0562
4,TCATACAA,0.0502
5,CCGTTGAC,-0.0822
6,GTATGCTA,0.107
7,ACTCGTAT,0.205
8,GCGCTAAC,-0.0761
9,GACTACTC,-0.135
10,AAAATACC,0.181
11,GAACTGCC,-0.072
12,GCATATAA,0.175
13,AGGCTTAC,-0.246
14,ATTTGACG,-0.0934
15,ACTCGTAA,-0.105
16,CGGGCAAC,-0.0178
17,CCCCTCGC,0.0809
18,GGGTCTGA,-0.143
19,CCGAATCA,0.00671
